In the RNAGym collection of RNA variant scans (doi:10.1093/nar/gkz1192):
Read counts are not given, so values of variants with three or more changes are uncertain.

B1: CPEB3 Ribozyme (parent)
chain: UAACAGGGGGCCACAGCAGAAGCGUUCACGUCGCAGCCCCUGUCAGAUUCUGGUGAAUCUGCGAAUUCUGCUGUAUAUCUC

Variants of: B1
Assay: self-cleavage, relative activity (ratio to wild type); higher = more cleavage; in vitro, sequencing
Summary of the method: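 Libraries of CPEB3 self-cleaving ribozyme mutants came from rounds of error-prone PCR and carried barcodes, which DNA sequencing matched to variants. In vitro transcription used T7 RNA polymerase at 37°C for 5 hours, with a further 15 min in DNase I before EDTA stopped the reaction; the ribozymes cleaved during both steps. The RNA was reverse transcribed with template switching and sequenced on Illumina. Relative activity is the cleaved/total read fraction of a variant divided by that of the unmutated ribozyme, averaged over three batches with at least 5 reads.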

Variant | self-cleavage
ACCCAGGGGGCCACAGCAGAAGCGUUCACGUCGCAGCCCCUGUCAGAUUCUGGUGAAUCUGCGAAUUCUGCUGUAUAUCUU | 1.23
ACGCAGGGGGCCACAGCAGAAGCGUUCACGUCGCAGCCCCUGUCAGAUUCUGGCGAAUCUGCGAAUUCUGCUGUAUAUCUC | 1.3
ACACAGGGGGCCACAGCGGAAGCGUUCACGUCGCAGCCCCUGUCAGGUUCUGGUGAAUCUGCGAAUUCUGCUGUAUAUCUC | 0.53
AGACAGGGGGCCUCAGCAGAAGCGUUCACGUCGCGGCCCCUGACAGAUUCUGGUGAAUCUGCGAAUUCCGCUGUAUAUCUC | 1.15
AGACAGGGGGCCUCAGCAGAAGCGUUCACGUCGCAGCCCCUGUCAGAUUCUGGUGAAUCUGCGAACUCUGCUGUAUAUCUC | 0.48
AGACAGGGGGCCACAGCAGAAGCGUUCACGUCGCAGCCCCUGUCAGAUUCUGGUGAAUCUGCGAAUUCUGCUGUAUUUCUC | 0.99
AGACAGGGGGCCAUAGCAGAAGCGUUCACGUCGCAGCCCCUGUCGGACUCUGGUGAAUCUGCGAAUCCUGCUGUAUAUCUC | 0.19
AGACAGGGGGCCACACCAGAAGCGUUCACGUCGCAGCCCCUGUCAGAUUCUGGUGAAUCUGCGAAUUCUGCUGUAUAUCUC | 0.57
AGACAGGGGGCCACAGCAGAAGCGUUCACGUCGCAGCCCCUGUCAGAUUCUGGAGAAUCUGCGAAUUCUGCUGUAUAUCUC | 0.92
AUACAGGGGGCCACAGCGGAAGCGUUCACGUCGCAGCCCCUGUCAGAUUCUGGCGAAUCUGCGAAUUCUACUGUAUAUCUC | 0.23
AUACAGGGGGCCACAGCAGAAGCGUUCACGUCGCAGCCCCUGUCAGAUUCUGGUGAAUCUGCGAAUUCAGCUGUAUAUCUC | 0.61
AACCGGGGGGCCGCAGCAGAAGCGUUCACGUCGCAGCCCCCGUCAGAUUCUGGUGAACCUGCGAAUUCUGCUGUAUAUCUC | 0.58
AACCAGGGGGCCUCAGCAGAAGCGUUCACGUCGCAGCCCCUGUCAGAUUCUGGUGAAUCUGCGAAUUCUGCUGUAUAUCUG | 1.23
AACCAGGGGGCCACAGCAGAAGCGUUCACGUCGCAGCCCCUGUCAGAUUCUGGUGAGUCUGCGAAUUCCGCUGUGUAUCUC | 0.76
AACCAGGGGGCCACAGCAGAAGCGUUCACGUCGCAGCCCCUGUCAGACUCUGGUGAGUCUGCGAAUUCCGGUGUAUAUCUC | 0.21
AAGCAGGGGGCCUCAGCAGAAGCGUUCACGUCGCAGCCCCUGUCAGAUUCUGGUGAAUCUGCGAAUUCUGCUGUAUAUCUC | 1.03
AAGCAGGGGGCCACUGCAGGAGCGUUCACGUCGCAGCCCCUGUCAGAUUCUGGUGAAUCUGCGAAUUCUGCUGUAUAUCUC | 0.88

Variant | self-cleavage
AAGCAGGGGGCCACAGCAGUAGCGUCCACGUCGCGGCCCCUGUCAGAUUCUGGUGAAUCUGCGAAUUCUGCGGUAUAUCUC | 0.47
AAGCAGGGGGCCACAGCAGAAGCGCUCACGUCGCAGCCCCUGUCAGAUUCUGGUGAAUCUGCGAAUUCUGCUGUAUAUCUC | 0.13
AAGCAGGGGGCCACAGCAGAAGCGUCCACGUCGCAGCCCCUGUCAGAUUCUGGUGAAUCUGCGAAUUCUGCUGUAUAUCUC | 0.65
AAGCAGGGGGCCACAGCAGAAGCGUUCACGUCGCAGCCCCUGUCAGAUUCUGGUGAAUCCGCGAAUUCUGCUGUAUAUCUC | 0.59
AAUCAGGGGGCCACAGCAGAAGCGCUCACGUCGCGGCCCCUGUCAGAUUCUGGUGAAGCUGCGAAUUCUGCUGUACAUCUC | 0.12
AAACCGGGGGCCACAGCAGAAGCGUUCACGUCGCAGCCCCUGUCAGAUUCUGGUGAAUCUGCGGAUUCUGCUGUACAUCUC | 0.94
AAACCGGGGGCCACAGCAGAAGCGUUCACGUCGCAGCCCCUUUCAGAUUCUGGUGAAUCUGCGAAUCCUGCUGUAUAUCUC | 0.28
AAACCGGGGGCCACAGCAGAAGCGUUCACGUCGCAGCCCCUGUCAGAUUCCGGUGAAUCUGCGAAUUCUGCUGUAUAUCUC | 0.65
AAACGGGGGGCCACAGCAGUAGCGUUCACGUCGCAGCCCCUGUCAGAUUCUGGUGAAUCCGCGAAUUCUGCUGUAUAUCUC | 0.1
AAACGGGGGGCCACAGCAGAAGCGUUCACGUCGCUGCCCCUUUCAGAUUCUGGUGAAUCUGCGAAUUCUGCUGUAUAUCCC | 0.12
AAACGGGGGGCCACAGCAGAAGCGUUCACGUCGCAGCACCUAUCGGAUUCUGGUGAAUCUGCGAAUUCUGCCGUAUAUCUC | 0.33
AAACGGGGGGCCACAGCAGAAGCGUUCACGUCGCAGCCCCAGUCAGAUUCUGGAGAAUCUGCGAAUGCUGCUGUAUAUCUC | 0.24
AAACUGGGGGCCACAGCAGAAGCGUUCACGUCGCAGCCCCUGUCAGAUUCUGGUGAAUCUGCGAAUCCUGCUGUAUAUCUC | 0.2
AAACAGGGGGCCCCAGCAGAAGCGUUCACGUCGCAGCCCCUGCCAGAUUCUGGUGAGUCUGCGAAUUCUGCUGUAUAUCUC | 0.16
AAACAGGGGGCCUCAGCAGAGGCGCUCGCGUCGCAGCCCCUGUCAGAUUCUGGUGAAUAUGCGAAUUCUGCUGCAUAUCUC | 0.15
AAACAGGGGGCCUCAGCAGAAGCGUUCACGUCGCAGCCCCUGUCAGAUUCUGGUGGAUCUACGAAUUCUGCUGUAUACCUC | 0.52
AAACAGGGGGCCUUAGCAGAAGCGUUCACGUCGCAGCCCCUGUCAGAUCCUGGUGAAUCUGCGAAUUCUGCUGUAUAUCUC | 0.55
